Among all 310,000 compounds or so, about 14,000 (4.5%) showed an effect of 50% or more. Effects have a minus sign here. The list shows a part of the results.
Each compound was assayed against human ether-à-go-go-related gene (hERG) potassium channel (human, UniProt Q12809) (assay: primary screen, population patch clamp on CHO cells stably expressing hERG).
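Further: peak tail current of the secondary pulse compared with the same well before compound.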

Sequence of human ether-à-go-go-related gene (hERG) potassium channel (Q12809 whole entry, looked up): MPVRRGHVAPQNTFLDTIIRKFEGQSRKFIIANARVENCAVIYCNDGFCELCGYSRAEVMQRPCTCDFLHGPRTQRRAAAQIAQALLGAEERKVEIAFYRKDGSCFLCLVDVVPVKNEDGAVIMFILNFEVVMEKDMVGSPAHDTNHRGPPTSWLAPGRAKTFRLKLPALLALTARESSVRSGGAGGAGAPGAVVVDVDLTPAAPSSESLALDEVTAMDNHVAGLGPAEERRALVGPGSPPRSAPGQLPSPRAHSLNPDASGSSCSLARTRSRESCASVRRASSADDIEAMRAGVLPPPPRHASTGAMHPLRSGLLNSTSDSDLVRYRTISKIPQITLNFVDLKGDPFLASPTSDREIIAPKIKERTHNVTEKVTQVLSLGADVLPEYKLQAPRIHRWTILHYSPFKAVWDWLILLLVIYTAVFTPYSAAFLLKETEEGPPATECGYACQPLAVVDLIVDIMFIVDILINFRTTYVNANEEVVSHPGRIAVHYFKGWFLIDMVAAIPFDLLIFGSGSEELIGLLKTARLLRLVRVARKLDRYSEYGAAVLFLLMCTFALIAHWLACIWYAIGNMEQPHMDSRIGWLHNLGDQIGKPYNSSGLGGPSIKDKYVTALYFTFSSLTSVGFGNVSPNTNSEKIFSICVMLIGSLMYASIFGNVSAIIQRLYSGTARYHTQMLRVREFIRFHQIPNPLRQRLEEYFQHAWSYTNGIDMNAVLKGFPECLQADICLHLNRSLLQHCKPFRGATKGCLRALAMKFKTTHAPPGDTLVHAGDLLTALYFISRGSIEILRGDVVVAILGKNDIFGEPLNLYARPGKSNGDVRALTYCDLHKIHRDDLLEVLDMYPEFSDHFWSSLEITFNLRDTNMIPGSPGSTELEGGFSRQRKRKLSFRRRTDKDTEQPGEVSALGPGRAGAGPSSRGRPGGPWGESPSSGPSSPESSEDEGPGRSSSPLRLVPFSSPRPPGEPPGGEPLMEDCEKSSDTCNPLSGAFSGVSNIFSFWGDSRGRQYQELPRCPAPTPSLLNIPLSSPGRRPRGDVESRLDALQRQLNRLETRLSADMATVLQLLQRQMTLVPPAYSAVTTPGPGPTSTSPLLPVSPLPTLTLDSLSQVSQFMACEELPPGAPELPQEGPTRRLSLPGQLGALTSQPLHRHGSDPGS

Row | SMILES | hERG current change (%, negative = inhibition) at 10uM
1 | COc1ccc(S(=O)(=O)Nc2ccc(S(=O)(=O)N(C)C)cc2)cc1[N+](=O)[O-] | -1.26%
2 | O=C(Nc1ccc(Cl)cc1)Nc1ccccc1NS(=O)(=O)c1cccs1 | 23.6%
3 | COc1ccccc1C(=O)NC(C)c1ccccc1 (stereo not drawn) | 18.6%
4 | Cc1ccc(CCNC(=O)NC(C)(C)C)cc1 | 1.58%
5 | Cc1nn(-c2ccc(F)cc2)c(Cl)c1/C=C(\CC(=O)O)c1nc2ccccc2s1 | -9.29%
6 | O=C(Nc1ccc(S(=O)(=O)N2CCCCC2)cc1)c1ccc(CN2CCOCC2)cc1 | -46.5%
7 | CCCCOc1ccc(C(=O)CCN2CCCCC2)cc1.Cl | -61.5%
8 | CCOc1ccccc1C(C(=O)NC1CCCC1)N(Cc1ccco1)C(=O)CNC(=O)c1ccco1 (stereo not drawn) | -5.58%
9 | COc1ccc(CNCCCO)cc1OC | 4.57%
10 | N#CC1CN(C(c2ccccc2)c2ccccc2)C1 | 12.8%
11 | COC(=O)C/C(N)=C(\C#N)C(=O)OC | 8.1%
12 | CCCC1=Nc2cc(C(=O)NCCN3CCCC3)ccc2Sc2ccccc21 | -21.2%
13 | COc1ccc(NC(=O)CCNS(=O)(=O)c2cccc3nsnc23)c(OC)c1 | 2.81%
14 | Cc1cc2cc3c(=O)[nH]c(=O)[nH]c3nc2cc1C | 13.3%
15 | CC(=O)c1c(N2CCN(C)CC2)nc(=S)n(-c2cc(C)ccc2C)c1C | 28.7%
16 | O=C(COC(=O)CCCc1nc2ccccc2s1)NC(=O)NCc1ccco1 | -26.1%
17 | FC(F)(F)c1cc(Cl)c2nnc(C(F)(F)Cl)n2c1 | 5.24%
18 | Fc1ccc(Nc2nc(-c3ccncc3)nc3ccccc23)cc1 | -13%
19 | O=c1c(Cc2ccc(F)cc2)c(O)ccn1Cc1ccco1 | 11.7%
20 | C#CCN(N(C)c1ncc(C(F)(F)F)cc1Cl)S(=O)(=O)c1ccc2ccccc2c1 | 11.1%
21 | O=[N+]([O-])c1ccc(Oc2cc(NC3CCCCCCC3)c([N+](=O)[O-])cc2[N+](=O)[O-])cc1 | -8.64%
22 | O=[N+]([O-])C(=C1Nc2ccccc2N1)C(Cl)=C(Cl)Cl | 23.1%

Row | SMILES | hERG current change (%, negative = inhibition) at 10uM
23 | Cc1cccc(OCc2nnc(SCC(=O)c3cccs3)n2C)c1C | -18.7%
24 | O=C(Nc1cccnc1)c1cc(-c2cccc(Br)c2)nc2ccccc12 | 0.689%
25 | Cc1[nH]c(=O)[nH]c(=O)c1NS(=O)(=O)c1ccccc1 | 17.2%
26 | O=C(NCc1ccco1)c1ccc2ccccc2c1 | -9.83%
27 | COc1ccc(/C(N)=N/OC(=O)CCc2ccccc2)cc1OC | -10.4%
28 | O=C(CN1C(=O)/C(=C\c2ccco2)SC1=S)Nc1ccc(O)cc1C(=O)O | 5.54%
29 | CCOc1ccc2nc(NC(=O)c3ccco3)sc2c1 | -2.08%
30 | CC(CCCN(C)C)C(Cc1ccccc1)c1ccccc1.Cl (stereo not drawn) | -7.53%
31 | CCOc1ccc(CCNC(=O)C2CCN(S(=O)(=O)N3CCOCC3)CC2)cc1OCC | -5.08%
32 | CN(Cc1ccccc1)c1ccc(C(CC(N)=O)NC(=O)c2ccccc2)cc1[N+](=O)[O-] (stereo not drawn) | 7.9%
33 | CN1CCN(c2nc(Nc3ccc(F)cc3)nc(Nc3ccc(F)cc3)n2)CC1 | -60.5%
34 | Cc1[nH]c2ccccc2c1C(=O)COC(=O)c1c(-c2ccccc2)noc1C | -9.73%
35 | COc1ccc(S(=O)(=O)N2CCC(C(=O)NCCC(=O)NC3CC3)CC2)cc1 | 14.8%
36 | CC(=O)c1c(C)[nH]c(C(=O)CN2C(=O)NC(C)(C)C2=O)c1C | -17.4%
37 | CCc1noc(C)c1C(=O)Nc1nc(-c2ccccc2)cs1 | -32.6%
38 | CCOC(=O)Cn1c(O)c(N=NC(=O)OC)c2ccccc21 | -0.42%
39 | CCCCCn1c(=O)c(C(=O)NC(C)c2ccccc2)c(O)c2ccccc21 (stereo not drawn) | 11.7%
40 | O=C(O)/C=C/c1ccc(O)cc1 | -0.655%
41 | Cc1ccc2nc3n(c(=O)c2c1)CCC3 | -14.5%
42 | CSc1ccc(CCNC(=O)c2ccc(CS(=O)Cc3ccccc3Cl)o2)cc1 (stereo not drawn) | -2.87%
43 | CCOc1ccccc1OCCCC(=O)OCC(=O)Nc1cccc(Cl)c1 | -1.46%
44 | CCOC(=O)Nc1ccc2nc(Sc3ccc(Cl)cc3)sc2c1 | 16.9%

Row | SMILES | hERG current change (%, negative = inhibition) at 10uM
45 | O=C(NCC1CCN(Cc2ccccc2F)CC1)C1CCCN(c2ncnc3c2nc2n3CCCCC2)C1 (stereo not drawn) | -8.94%
46 | O=C(NC(NC(=S)Nc1ccccc1O)C(Cl)(Cl)Cl)c1ccco1 (stereo not drawn) | -1.45%
47 | COc1cc(C(=S)N2CCCCC2)ccc1OCC(=O)N1CCCC1 | -22.2%
48 | Cc1[nH]c2ccc(C(=O)OCCN(C)C)cc2c1C | 3.65%
49 | COCC(O)CSc1nc(C)[nH]c1[N+](=O)[O-] (stereo not drawn) | -3.58%
50 | COCc1c(N)c(C)nc(Cl)c1C#N.Cl | 22.3%
51 | Cn1cc(/C=C/c2nc3ccccc3c(=O)n2-c2cccc([N+](=O)[O-])c2)c2ccccc21 | -3.56%
52 | Cn1c(=O)c2c(SCc3ccccn3)nc(CC(C)(C)C)nc2n(C)c1=O | -79.4%
53 | NC(=O)C1CCN(C(=O)c2ccc3c(=O)n(Cc4cccc(Br)c4)c(=S)[nH]c3c2)CC1 | -2.2%
54 | O=C(NC1CCSc2ccccc21)c1cccc(S(=O)(=O)N2CCOCC2)c1 (stereo not drawn) | 5.42%
55 | Cc1noc(C)c1CSc1nnc(-c2cc(Cl)ccc2Cl)n1N | 4.95%
56 | CC(OC(=O)c1ccc(Cl)nc1)C(=O)NCc1ccc2c(c1)OCO2 (stereo not drawn) | -9.49%
57 | O=C(O)C(=O)O.c1ccc(COc2ccc(OCCCCN3CCCCC3)cc2)cc1 | -70.5%
58 | O=C(C1=C[C@H](c2ccc(C(F)(F)F)cc2)C[C@H](OCc2ccc(CO)cc2)O1)N1CCCCCCC1 | -17.7%
59 | CCOC(=O)N1CCN(S(=O)(=O)c2ccc3c(c2)CC(C)N3C(=O)C2CC2)CC1 (stereo not drawn) | 9.17%
60 | O=C(CSc1cnc2ccccc2n1)NC1CCCC1 | -8.88%
61 | Cl.c1ccc(NNC2=NCCCCC2)cc1 | 8.92%
62 | CC(C)CC(=O)NC(=S)Nc1ccc(N2CCOCC2)cc1 | -0.887%
63 | N/C(=N\OS(=O)(=O)c1cc(Cl)ccc1Cl)c1ccncc1 | -7.66%
64 | Cc1ccc(N=C(NOCc2ccc(Cl)cc2Cl)c2nonc2N)c(C)c1 | 4.49%
65 | COC(=O)C1C2CCC(C2)C1C(=O)OCC(=O)c1ccccc1 (stereo not drawn) | -14.2%
66 | Cc1ccc2nc(/C(C#N)=C\c3cc(C)n(-c4cccc([N+](=O)[O-])c4)c3C)[nH]c2c1 | -1.29%

Row | SMILES | hERG current change (%, negative = inhibition) at 10uM
67 | COc1cccc(C2c3[nH]c4ccccc4c3C[C@H]3C(=O)N(CCCCCO)CC(=O)N23)c1 (stereo partly drawn) | -64.9%
68 | C[C@H](NC(=O)N1C[C@H]2C[C@@H](C1)c1cccc(=O)n1C2)C(=O)Nc1ccc(F)c(F)c1 | 10.6%
69 | COc1cc(CO)c(OC)c([N+](=O)[O-])c1 | 24.4%
70 | COc1ccc(C(=O)COC(=O)C(C)N2C(=O)C3C4CCC(C4)C3C2=O)cc1 (stereo not drawn) | 3.1%
71 | CC1=C(C(N)=O)C(c2ccco2)C(C(N)=O)=C(C)N1 | 26.2%
72 | CC(C)(C)c1ccc(NC(=O)c2c(F)cccc2Cl)cc1 | -8.54%
73 | CN(CC(=O)N1CCCCC1)S(=O)(=O)c1cccc2cccnc12 | -1.23%
74 | CCOc1ccccc1CN1CCCC(C(=O)c2cc(F)ccc2F)C1 (stereo not drawn) | -50.8%
75 | COc1ccc([C@@H]2[C@@H]3C(=O)N(C(C)(C)C)C(=O)[C@@H]3[C@]3(C)C(=O)N(c4cccc(F)c4)C(=O)N23)cc1 | 11.8%
76 | COCCCNC(=O)c1ccc(N2CCCC2)c(NS(=O)(=O)c2ccc(C)cc2)c1 | -10.1%
77 | Cc1ncc([N+](=O)[O-])n1CCOC(=O)C12CC3CC(CC(C3)C1)C2 | 3.68%
78 | OCC1CCCN(C(=S)Nc2ccc(OC(F)F)cc2)C1 (stereo not drawn) | -1.17%
79 | O=C(N/N=C/c1ccc(N2CCCCC2)o1)C(O)(c1ccccc1)c1ccccc1 | 20.2%
80 | NS(=O)(=O)c1ccc(CNC(=O)/C=C/c2c(Cl)cccc2Cl)cc1 | 2.87%
81 | O=C(C[N+]1(CC#Cc2ccccc2)CCOCC1)c1ccc(Cl)cc1.[Br-] | -13.1%
82 | CCc1ccccc1NC(=O)CSc1nnc([C@@H](N)Cc2ccccc2)o1.Cl | 5.65%
83 | COc1cc(NS(=O)(=O)c2ccc(NC(=O)c3cccnc3)cc2)ncn1 | 12.3%
84 | CCCCCCCC(=O)N/N=C/c1cccnc1 | -19.7%
85 | CCc1nc2ccc(C(=O)NCCc3ccc(OC)c(OC)c3)cc2nc1CC | -0.0865%
86 | FC(F)(F)c1cc(-c2cccs2)nc(NCc2ccco2)n1 | 19.3%
87 | COc1cccc(CN2CCNC(=O)C2CC(=O)NCCc2ccccn2)c1 (stereo not drawn) | 9.8%

Reference: paper PMC4336329 (PLoS ONE, 2015)
